From article PMC4592949 (eLife, 2015)

Biological target: the molecule itself
Experiment: SEC; gel filtration of recombinant FTH1-only complexes on a Superose 6 column; main peak at about 14 ml, apparent 450 kDa

B1: recombinant FTH1 R23A-only ferritin complex (complex)
chain: not shown
notes: ferritin heavy chain FTH1, point mutant; Forms 450 kDa complexes like the wild type; also called R23A FTH1-only complexes; source: E. coli, purified (Ni-IMAC, Senp1 cleavage, Q-sepharose, Superose 6 gel filtration); not shown: His6-Sumo, N-terminal, cleaved; copies: 24
Does B1 bind?
Result: binds
